First the molecules themselves.
B1: ZBTB16, Q05516 (protein)
chain: MDLTKMGMIQLQNPSHPTGLLCKANQMRLAGTLCDVVIMVDSQEFHAHRTVLACTSKMFEILFHRNSQHYTLDFLSPKTFQQILEYAYTATLQAKAEDLDDLLYAAEILEIEYLEEQCLKMLETIQASDDNDTEATMADGGAEEEEDRKARYLKNIFISKHSSEESGYASVAGQSLPGPMVDQSPSVSTSFGLSAMSPTKAAVDSLMTIGQSLLQGTLQPPAGPEEPTLAGGGRHPGVAEVKTEMMQVDEVPSQDSPGAAESSISGGMGDKVEERGKEGPGTPTRSSVITSARELHYGREESAEQVPPPAEAGQAPTGRPEHPAPPPEKHLGIYSVLPNHKADAVLSMPSSVTSGLHVQPALAVSMDFSTYGGLLPQGFIQRELFSKLGELAVGMKSESRTIGEQCSVCGVELPDNEAVEQHRKLHSGMKTYGCELCGKRFLDSLRLRMHLLAHSAGAKAFVCDQCGAQFSKEDALETHRQTHTGTDMAVFCLLCGKRFQAQSALQQHMEVHAGVRSYICSECNRTFPSHTALKRHLRSHTGDHPYECEFCGSCFRDESTLKSHKRIHTGEKPYECNGCGKKFSLKHQLETHYRVHTGEKPFECKLCHQRSRDYSAMIKHLRTHNGASPYQCTICTEYCPSLSSMQKHMKGHKPEEIPPDWRIEKTYLYLCYV
B2: LBX1, P52954 (protein)
chain: MTSKEDGKAAPGEERRRSPLDHLPPPANSNKPLTPFSIEDILNKPSVRRSYSLCGAAHLLAAADKHAQGGLPLAGRALLSQTSPLCALEELASKTFKGLEVSVLQAAEGRDGMTIFGQRQTPKKRRKSRTAFTNHQIYELEKRFLYQKYLSPADRDQIAQQLGLTNAQVITWFQNRRAKLKRDLEEMKADVESAKKLGPSGQMDIVALAELEQNSEATAGGGGGCGRAKSRPGSPVLPPGAPKAPGAGALQLSPASPLTDQPASSQDCSEDEEDEEIDVDD
B3: TCEAL1, Q15170 (protein)
chain: MDKPRKENEEEPQSAPKTDEERPPVEHSPEKQSPEEQSSEEQSSEEEFFPEELLPELLPEMLLSEERPPQEGLSRKDLFEGRPPMEQPPCGVGKHKLEEGSFKERLARSRPQFRGDIHGRNLSNEEMIQAADELEEMKRVRNKLMIMHWKAKRSRPYPI
B4: ELK3, P41970 (protein)
chain: MESAITLWQFLLQLLLDQKHEHLICWTSNDGEFKLLKAEEVAKLWGLRKNKTNMNYDKLSRALRYYYDKNIIKKVIGQKFVYKFVSFPEILKMDPHAVEISRESLLLQDSDCKASPEGREAHKHGLAALRSTSRNEYIHSGLYSSFTINSLQNPPDAFKAIKTEKLEEPPEDSPPVEEVRTVIRFVTNKTDKHVTRPVVSLPSTSEAAAASAFLASSVSAKISSLMLPNAASISSASPFSSRSPSLSPNSPLPSEHRSLFLEAACHDSDSLEPLNLSSGSKTKSPSLPPKAKKPKGLEISAPPLVLSGTDIGSIALNSPALPSGSLTPAFFTAQTPNGLLLTPSPLLSSIHFWSSLSPVAPLSPARLQGPSTLFQFPTLLNGHMPVPIPSLDRAASPVLLSSNSQKS
B5: SIK1, P57059 (protein)
chain: MVIMSEFSADPAGQGQGQQKPLRVGFYDIERTLGKGNFAVVKLARHRVTKTQVAIKIIDKTRLDSSNLEKIYREVQLMKLLNHPHIIKLYQVMETKDMLYIVTEFAKNGEMFDYLTSNGHLSENEARKKFWQILSAVEYCHDHHIVHRDLKTENLLLDGNMDIKLADFGFGNFYKSGEPLSTWCGSPPYAAPEVFEGKEYEGPQLDIWSLGVVLYVLVCGSLPFDGPNLPTLRQRVLEGRFRIPFFMSQDCESLIRRMLVVDPARRITIAQIRQHRWMRAEPCLPGPACPAFSAHSYTSNLGDYDEQALGIMQTLGVDRQRTVESLQNSSYNHFAAIYYLLLERLKEYRNAQCARPGPARQPRPRSSDLSGLEVPQEGLSTDPFRPALLCPQPQTLVQSVLQAEMDCELQSSLQWPLFFPVDASCSGVFRPRPVSPSSLLDTAISEEARQGPGLEEEQDTQESLPSSTGRRHTLAEVSTRLSPLTAPCIVVSPSTTASPAEGTSSDSCLTFSASKSPAGLSGTPATQGLLGACSPVRLASPFLGSQSATPVLQAQGGLGGAVLLPVSFQEGRRASDTSLTQGLKAFRQQLRKTTRTKGFLGLNKIKGLARQVCQAPASRASRGGLSPFHAPAQSPGLHGGAAGSREGWSLLEEVLEQQRLLQLQHHPAAAPGCSQAPQPAPAPFVIAPCDGPGAAPLPSTLLTSGLPLLPPPLLQTGASPVASAAQLLDTHLHIGTGPTALPAVPPPRLARLAPGCEPLGLLQGDCEMEDLMPCSLGTFVLVQ
B6: TNFRSF11A, Q9Y6Q6 (protein)
chain: MAPRARRRRPLFALLLLCALLARLQVALQIAPPCTSEKHYEHLGRCCNKCEPGKYMSSKCTTTSDSVCLPCGPDEYLDSWNEEDKCLLHKVCDTGKALVAVVAGNSTTPRRCACTAGYHWSQDCECCRRNTECAPGLGAQHPLQLNKDTVCKPCLAGYFSDAFSSTDKCRPWTNCTFLGKRVEHHGTEKSDAVCSSSLPARKPPNEPHVYLPGLIILLLFASVALVAAIIFGVCYRKKGKALTANLWHWINEACGRLSGDKESSGDSCVSTHTANFGQQGACEGVLLLTLEEKTFPEDMCYPDQGGVCQGTCVGGGPYAQGEDARMLSLVSKTEIEEDSFRQMPTEDEYMDRPSQPTDQLLFLTEPGSKSTPPFSEPLEVGENDSLSQCFTGTQSTVGSESCNCTEPLCRTDWTPMSSENYLQKEVDSGHCPHWAASPSPNWADVCTGCRNPPGEDCEPLVGSPKRGPLPQCAYGMGLPPEEEASRTEARDQPEDGADGRLPSSARAGAGSGSSPGGQSPASGNVTGNSNSTFISSGQVMNFKGDIIVVYVSQTSQEGAAAAAEPMGRPVQEETLARRDSFAGNGPRFPDPCGGPEGLREPEKASRPVQEQGGAKA
B7: ID2, Q02363 (protein)
chain: MKAFSPVRSVRKNSLSDHSLGISRSKTPVDDPMSLLYNMNDCYSKLKELVPSIPQNKKVSKMEILQHVIDYILDLQIALDSHPTIVSLHHQRPGQNQASRTPLTTLNTDISILSLQASEFPSELMSNDSKALCG
B8: ZNF516, Q92618 (protein)
chain: MDRNREAEMELRRGPSPTRAGRGHEVDGDKATCHTCCICGKSFPFQSSLSQHMRKHTGEKPYKCPYCDHRASQKGNLKIHIRSHRTGTLIQGHEPEAGEAPLGEMRASEGLDACASPTKSASACNRLLNGASQADGARVLNGASQADSGRVLLRSSKKGAEGSACAPGEAKAAVQCSFCKSQFERKKDLELHVHQAHKPFKCRLCSYATLREESLLSHIERDHITAQGPGSGEACVENGKPELSPGEFPCEVCGQAFSQTWFLKAHMKKHRGSFDHGCHICGRRFKEPWFLKNHMKAHGPKTGSKNRPKSELDPIATINNVVQEEVIVAGLSLYEVCAKCGNLFTNLDSLNAHNAIHRRVEASRTRAPAEEGAEGPSDTKQFFLQCLNLRPSAAGDSCPGTQAGRRVAELDPVNSYQAWQLATRGKVAEPAEYLKYGAWDEALAGDVAFDKDRREYVLVSQEKRKREQDAPAAQGPPRKRASGPGDPAPAGHLDPRSAARPNRRAAATTGQGKSSECFECGKIFRTYHQMVLHSRVHRRARRERDSDGDRAARARCGSLSEGDSASQPSSPGSACAAADSPGSGLADEAAEDSGEEGAPEPAPGGQPRRCCFSEEVTSTELSSGDQSHKMGDNASERDTGESKAGIAASVSILENSSRETSRRQEQHRFSMDLKMPAFHPKQEVPVPGDGVEFPSSTGAEGQTGHPAEKLSDLHNKEHSGGGKRALAPDLMPLDLSARSTRDDPSNKETASSLQAALVVHPCPYCSHKTYYPEVLWMHKRIWHRVSCNSVAPPWIQPNGYKSIRSNLVFLSRSGRTGPPPALGGKECQPLLLARFTRTQVPGGMPGSKSGSSPLGVVTKAASMPKNKESHSGGPCALWAPGPDGYRQTKPCHGQEPHGAATQGPLAKPRQEASSKPVPAPGGGGFSRSATPTPTVIARAGAQPSANSKPVEKFGVPPAGAGFAPTNKHSAPDSLKAKFSAQPQGPPPAKGEGGAPPLPPREPPSKAAQELRTLATCAAGSRGDAALQAQPGVAGAPPVLHSIKQEPVAEGHEKRLDILNIFKTYIPKDFATLYQGWGVSGPGLEHRGTLRTQARPGEFVCIECGKSFHQPGHLRAHMRAHSVVFESDGPRGSEVHTTSADAPKQGRDHSNTGTVQTVPLRKGT
B9: S100A8, P05109 (protein)
chain: MLTELEKALNSIIDVYHKYSLIKGNFHAVYRDDLKKLLETECPQYIRKKGADVWFKELDINTDGAVNFQEFLILVIKMGVAAHKKSHEESHKE
B10: BARHL2, Q9NY43 (protein)
chain: MTMEGASGSSFGIDTILSSASSGSPGMMNGDFRPLGEARTADFRSQATPSPCSEIDTVGTAPSSPISVTMEPPEPHLVADATQHHHHLHHSQQPPPPAAAPTQSLQPLPQQQQPLPPQQPPPPPPQQLGSAASAPRTSTSSFLIKDILGDSKPLAACAPYSTSVSSPHHTPKQESNAVHESFRPKLEQEDSKTKLDKREDSQSDIKCHGTKEEGDREITSSRESPPVRAKKPRKARTAFSDHQLNQLERSFERQKYLSVQDRMDLAAALNLTDTQVKTWYQNRRTKWKRQTAVGLELLAEAGNYSALQRMFPSPYFYHPSLLGSMDSTTAAAAAAAMYSSMYRTPPAPHPQLQRPLVPRVLIHGLGPGGQPALNPLSSPIPGTPHPR

This is one part of the list. Binding of human transcription factors and regulators to the viral nucleoprotein by AlphaScreen, crude cell-free proteins, amounts not normalised, one pass. Fold of the Venus control; higher = more signal. No active / inactive call. Single-pass screen; sequences are the whole Swiss-Prot entries looked up by name.

The target in the assay is nucleoprotein N of Crimean-Congo hemorrhagic fever virus. Description: AlphaScreen luminescence signal relative to Venus negative control (fold); higher = stronger binding to CCHFV N. The method, then: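 AlphaScreen binding of cell-free made, FLAG-GST-tagged human transcription factors and regulators (crude translation products) to biotinylated N protein; signal as fold of the FLAG-GST-Venus control. One pass.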
As to B1, the AlphaScreen luminescence signal was 1.63. The result for B2 reads 3.26. The result for B3 reads 1.49; that for B4, 3.16. With B5, the AlphaScreen luminescence signal came to 2.28. The result for B6 reads 1.44; that for B7, 1.95. In turn, B8 registered an AlphaScreen luminescence signal of 2.6.

As for B9, the AlphaScreen luminescence signal was 1.35. In the case of B10 it was 2.28.

Source of the values: the supplement of paper PMC12423691.
